From the supplement of paper PMC3334620
Over roughly 33,000 sequences, “E-score (-0.5 to 0.5)” has its median near -0.016; the highest 2% begin near 0.32. The list shows a part of the results.

What follows are sequences tested against T1, Stp1 (UniProt B3LFK1) (assay: PBM E-score (8-mer binding enrichment) (E-score (-0.5 to 0.5)); higher = stronger / more preferred TF binding; most listed sequences are background and not binding sites). Details: protein concentration: 200 nM; construct: GST-full length.
T1 sequence: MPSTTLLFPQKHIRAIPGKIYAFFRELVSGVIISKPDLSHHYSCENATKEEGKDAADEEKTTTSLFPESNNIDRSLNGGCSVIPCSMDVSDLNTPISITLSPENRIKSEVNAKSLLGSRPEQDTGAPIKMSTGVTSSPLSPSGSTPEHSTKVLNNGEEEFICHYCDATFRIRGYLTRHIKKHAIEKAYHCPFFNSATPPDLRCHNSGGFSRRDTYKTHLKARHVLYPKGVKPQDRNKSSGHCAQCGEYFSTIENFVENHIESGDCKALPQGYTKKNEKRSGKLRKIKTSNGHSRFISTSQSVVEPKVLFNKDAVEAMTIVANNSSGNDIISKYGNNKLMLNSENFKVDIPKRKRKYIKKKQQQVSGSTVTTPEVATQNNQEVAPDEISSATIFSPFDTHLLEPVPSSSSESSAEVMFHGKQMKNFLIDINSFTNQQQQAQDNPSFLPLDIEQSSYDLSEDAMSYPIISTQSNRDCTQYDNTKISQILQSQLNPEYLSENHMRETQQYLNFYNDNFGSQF
Procedure, shortened: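 Yeast transcription factors carrying a GST tag, as full-length proteins or DNA-binding domains, were produced by PURExpress in vitro transcription/translation. About 100-200 nM protein was applied to universal all-10-mer Agilent arrays, double-stranded by primer extension on fresh or once-stripped slides. Bound protein was detected with fluorescent anti-GST, and scans were normalised with masliner. The Universal PBM Analysis Suite gave each ungapped eight-base word, pooled with its reverse complement, an E-score, a modified Wilcoxon-Mann-Whitney statistic.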

| Sequence | PBM E-score |
| --- | --- |
| CAACCGGA | -0.0392 |
| CACAGAGA | -0.0444 |
| AAGCCCAA | -0.0515 |
| GCGTGACC | 0.0164 |
| GAATATTC | 0.214 |
| CGGTAAAA | 0.128 |
| GACCTGCC | -0.172 |
| CCTTCCTC | -0.225 |
| CACTAACG | -0.00477 |
| AGTATTAC | 0.0906 |
| CGATCCGC | 0.123 |
| ACTCGGGA | -0.21 |
| AACGTGGC | 0.149 |
| CACAAGGC | 0.249 |
| CAGGAGTC | -0.101 |
| CCTGGCTA | -0.107 |
| AGAAATGG | -0.0513 |
| AGTTACTG | -0.0577 |
| CCCTCAGG | -0.224 |
| ACTGAAAT | 0.138 |
| ATGATGTC | -0.167 |
| CACATGTG | -0.00297 |
| CATCAACA | 0.123 |
| AGACTGGA | -0.146 |
| AATGTCCG | 0.0749 |

| Sequence | PBM E-score |
| --- | --- |
| TGAGCTCA | 0.0398 |
| AAGGATCA | -0.00163 |
| AACTTTAA | 0.149 |
| TAGCTGGA | -0.384 |
| ATGAAGAC | 0.0861 |
| GAATGTCC | -0.0798 |
| ATGCGTGC | 0.137 |
| GAAAGCCA | -0.172 |
| CTGTCACA | 0.0144 |
| AAAAATTA | 0.27 |
| ATGAGTTG | -0.0406 |
| GGGAGCTA | -0.235 |
| CGTACGCC | 0.233 |
| ATAAGGCA | 0.299 |
| CTCGTGGA | -0.152 |
| GAGCGTGA | -0.0524 |
| CGAAAAGA | 0.184 |
| AAATCGCC | 0.304 |
| CACAGTTA | 0.058 |
| CAATCAAG | 0.00135 |
| ATGTAGAA | -0.0668 |
| ATGTCACC | -0.0379 |
| CGTACACA | 0.113 |
| TGCGATAA | 0.0863 |
| ACGATACC | -0.0468 |

| Sequence | PBM E-score |
| --- | --- |
| AAGCAGAT | 0.0402 |
| CGTGTCTC | 0.037 |
| ATCCCGCG | 0.225 |
| CGTTGCTC | 0.0478 |
| GTTGTAGA | 0.131 |
| TGCAAACA | -0.154 |
| ACTAGGCG | 0.258 |
| CGAATCGA | 0.242 |
| AAAATATT | 0.135 |
| GCTCTCCC | -0.267 |
| CATTAAAC | 0.0805 |
| CGATTTAA | 0.11 |
| CAGGGATG | -0.13 |
| CTGTAACC | 0.0613 |
| AATGGGGC | 0.0987 |
| AGTGGACC | -0.286 |
| ATGTCCGA | -0.154 |
| GAGTAACA | 0.144 |
| CATAAATC | 0.121 |
| GATTTGGA | -0.111 |
| GGGAGGGA | -0.259 |
| ATTATGCA | 0.0102 |
| AAAGCATG | -0.0619 |
| CCGGGAAA | -0.125 |
| TACCTCAA | -0.169 |

| Sequence | PBM E-score |
| --- | --- |
| GCATTCCC | -0.127 |
| CACCCTGC | -0.105 |
| ACGGAAGC | 0.0748 |
| AAGGGTCA | -0.161 |
| ATCTTCTA | -0.02 |
| AAAGCAGA | 0.0506 |
| GACCAACC | -0.152 |
| CAAGAGGA | -0.0502 |
| ATCAACTA | 0.195 |
| ACATACCC | -0.00954 |
| GCAAAGGA | 0.0118 |
| ATATTCCC | -0.123 |
| GAATTGCC | 0.115 |
| ACATGATC | 0.133 |
| TTGTGAAA | 0.106 |
| AAGGTTTA | -0.217 |
| CGCCAGCG | -0.00723 |
| AGCGACGG | 0.175 |
| ACGAGCAG | 0.0182 |
| CGCCAGGA | -0.138 |
| AAATCATA | 0.184 |
| CTGGGCTA | -0.272 |
| CTATTTCA | 0.145 |
| CGCGCTCA | 0.182 |
| ATACGACC | -0.13 |

| Sequence | PBM E-score |
| --- | --- |
| AAGCGAAC | -0.0555 |
| GTCGGTTA | -0.0125 |
| CGGGCGAA | -0.0179 |
| GGGCGAAC | 0.0424 |
| CACCGGAC | -0.0582 |
| CATCTTCC | 0.123 |
| ACCGTCGT | -0.0506 |
| ACATTGGC | -0.158 |
| CAGGTTAC | -0.139 |
| AACCATGA | -0.0217 |
| AGGCGAAA | 0.102 |
| TAGCGATA | 0.0291 |
| CAGGATGG | -0.1 |
| CGGAGAGA | 0.00412 |
| ACACACTA | -0.0331 |
| GAATCCAA | -0.0781 |
| GACGGGAC | -0.203 |
| ACCCAGTG | -0.159 |
| AAGGAAAC | 0.119 |
| AATGCATT | -0.0302 |
| ATCCAACG | -0.237 |
| AGATATGC | -0.04 |
| AAGCGTCC | -0.186 |
| CAGCAGAG | -0.117 |
| CTTTACAC | 0.0646 |

| Sequence | PBM E-score |
| --- | --- |
| GCTGGCCC | -0.298 |
| TCGTTGAA | 0.0706 |
| AAATCCTC | -0.218 |
| ATAACTCC | -0.108 |
| CAAAGAGA | -0.0223 |
| ACTTGTGC | -0.0315 |
| AAGGTACA | -0.0874 |
| CGCTAAAG | 0.0823 |
| AAAAGTCA | 0.0186 |
| ATATTCCA | 0.16 |
| CGCAGACA | 0.178 |
| CATAGTGA | -0.301 |
| ATGGTCAA | 0.123 |
| CATCCCAG | -0.172 |
| CTAGGTAC | -0.143 |
| ACCGAGCT | -0.188 |
| GGATGCCC | -0.245 |
| CATATACA | 0.21 |
| GCGCTGAC | -0.0446 |
| ATGACGGC | 0.136 |
| CGAGGAAA | 0.05 |
| CTATTTTC | 0.151 |
| CTGCACCC | -0.284 |
| ACTTAATC | -0.0748 |
| ACGATTGC | 0.129 |

| Sequence | PBM E-score |
| --- | --- |
| GTCAGTCA | -0.132 |
| CTGTATAC | 0.0428 |
| GTCACCTA | -0.204 |
| AGGTTTTC | -0.0802 |
| AATTCGGT | 0.217 |
| ACCTTAAA | 0.0365 |
| AGCCTAGG | -0.245 |
| ATACACAT | 0.16 |
| GTACAGCA | 0.00339 |
| ACAGATAC | 0.0916 |
| GGTATCAC | -0.181 |
| GGCATCAC | 0.289 |
| ATCGGTCA | -0.0278 |
| CATTATCG | 0.00751 |
| CTACGTAC | 0.0116 |
| ACGGAACC | 0.129 |
| CTGGTGAA | -0.202 |
| GACGGTTA | -0.201 |
| GAATAATA | 0.15 |
| ACAAGGAT | 0.0271 |
| AAAGCACT | -0.0405 |
| AATACGCC | 0.24 |
